Among all 150,000 compounds or so, about 540 (0.36%) showed an effect of 50% or more. The list shows a part of the results.
The compounds below were run on Plasmodium falciparum (assay: Primary screen in NF54 nanoGlo assay, in single point, at 2uM, 72h; a lower Z score goes with more inhibition). Conditions: timepoint 72 hour.
Type: functional, Erythrocyte

SMILES | % Inhibition | Z score
CN(CCCNc1ccccc1)C(=O)c1ccc(Cl)cn1 | 3% | -0.41
CCC(C)c1csc(NC(=O)NC(C)c2cnn(C)c2)n1 (stereo not drawn) | -1% | 0.21
COc1cc(C(=O)Nc2ccc(OCc3ccccc3)cc2)c2[nH]ncc2c1 | -4% | 0.55
CC(C)Cc1nc(CN(C)c2nc(N(C)C)nc3c2CCNC3)no1 | -7% | 1.06
CC(C)C(=O)Nc1cc(C(=O)OC[C@H]2CCCCO2)c(F)cc1F | 29% | -3.92
CC(=O)c1cccc(CN(CCN2CCCCC2)C[C@H]2CCCN(C3CCCC3)C2)c1 | -6% | 1.1
COC(=O)C1(N(C)Cc2nnsc2Cl)CCCCC1 | -9% | 1.38
Cc1cc(C)n(-c2ccnc(N3CCN(c4ccc(F)cc4)CC3)n2)n1 | -10% | 1.08
CC12CC(c3ccccc3O1)C(C(N)=O)C(=O)N2CCCn1ccc2ccc(Cl)cc21 (stereo not drawn) | -13% | 2.09
CCCn1cc(NC2CCC3(CC2)OCCO3)cn1 | -9% | 1.21
Cc1n[nH]c([C@H]2CCN(Cc3ccc(F)cc3F)C[C@H]2NC(=O)C2CCOCC2)n1 | -9% | 1.19
Cc1noc(C)c1CC(=O)N1C[C@H](C)NC(=O)c2ccccc21 | -14% | 1.38
O=C(Cn1ccc(C(F)(F)F)n1)N1CCCC1 | -15% | 2.9
CC1(C)C[C@@H](c2nccn2CCc2c[nH]c(=O)[nH]c2=O)CCO1 | 16% | -2.85
O=C(CN1CCCCCC1=O)N1CCCC1 | -1% | 0.12
O=C(Nc1ccccc1OCc1cccc(Cl)c1)[C@H]1CCNC1 | 2% | -0.25
CC[C@@H](CO)NC(=O)Nc1ccc(Cl)cc1 | 35% | -0.64
Cn1nc(C(=O)Nc2cc(-c3ccccc3)ns2)ccc1=O | 12% | -2.32
CC(=O)N[C@H](CC1CCC1)C(=O)N1CCN(C2CCC2)CC1 | -4% | 0.67
O=C1NCc2ccc(NCC3CC4CCC3O4)cc21 (stereo not drawn) | -12% | 1.25
Cc1nc(N2CCOC[C@](O)(CN3CCCC3)C2)c2ccsc2n1 | -1% | 0.11

SMILES | % Inhibition | Z score
N#Cc1ccc(CN2C[C@@H]3C[C@H]2C(=O)N2CCO[C@H](CN(Cc4ccc(F)c(F)c4)C[C@H]4O[C@@H](CC(=O)N3)[C@H](O)[C@@H]4O)C2)cc1 | 14% | -1.63
CCc1csc(NCc2nocc2C)n1 | -16% | 3.06
COC[C@H]1CCCN1C(=O)CCCc1cn[nH]c1 | 3% | -0.41
CCOc1cccc2c1OC[C@@H](C(=O)N1CCCS1(=O)=O)C2 | -7% | 1.2
COc1ccnc(CNC(=O)[C@H]2C[C@@H]2c2ccccc2)n1 | 3% | -0.46
Cn1cc(-c2ccccc2)c(NC(=O)NCCC(=O)Nc2ccccc2)n1 | -15% | 1.48
Cc1cc2c(cc1C)C(NC1CCC(=O)NC1)CCCO2 (stereo not drawn) | -9% | 0.83
Fc1ccc(-c2cc(-c3ccccc3)c3c(n2)-c2cc(F)ccc2OC3)cc1 | -6% | 0.7
Cn1c(=O)c2c(nc3n2CC(=O)N3c2ccccc2F)n(C)c1=O | -23% | 2.43
CC1(CO)CN(C(=O)COc2ccc(OCc3ccccc3)cc2)C1 | -1% | 0.13
Cc1cc(C(=O)N(C)C[C@H]2Cc3ccccc3CO2)c(C)o1 | 2% | -0.27
O=C(NC(CC1CCOCC1)c1ccccc1)N1CCC[C@H]1CO (stereo partly drawn) | -4% | 0.44
COc1ncc(NC(=O)c2c(F)cccc2Cl)cn1 | 5% | -0.6
c1cc(CNC2CCCCCCC2)on1 | -12% | 1.4
CC(C)c1nc(Cn2ccnc2-c2cccc3cnccc23)cs1 | -6% | 0.87
Cc1nnc(CS(=O)(=O)[C@@H](C)c2ccccc2Cl)n1C1CC1 | -1% | 0.21
COc1ccc2c(c1)[C@@H](NCc1ccccc1)CCO2 | -5% | 0.65
c1cnc(NCc2cnc(N3CCCC3)s2)cn1 | -3% | 0.38
OCC[C@H]1CN(Cc2ccc3c(c2)OCCO3)CCN1Cc1cccs1 | -9% | 1.63
c1ccc2c(c1)OC[C@@H](c1noc(C3(n4cnnn4)CC3)n1)O2 | -7% | 1.39
Cc1c(C2CCN(S(=O)(=O)c3ccc(C(C)C)cc3)CC2)c2ccccc2n1Cc1ccc(F)cc1 | -7% | 0.95

SMILES | % Inhibition | Z score
COC(=O)C1CCN(Cc2c(C(=O)N3C[C@@H](C)O[C@@H](C)C3)nc3ccc(Cl)cn23)CC1 | 9% | -1.26
N#Cc1cc(F)ccc1NCCCc1nc(=O)[nH][nH]1 | -7% | 1
CCc1cc(C(=O)N2C[C@H]3CC[C@@H](C2)N(Cc2c(C)noc2C)C3=O)no1 | -17% | 2.35
CCOc1cccc(-n2nc(C)[nH]c2=O)n1 | -18% | 2.12
CCC(CC)NC(=O)c1cc(Cl)ccc1Cl | -17% | 3.23
COc1ccccc1OCC(=O)Nc1nccnc1C(F)(F)F | -17% | 2
CCOCC(=O)N1CCC[C@](C)(c2nc(C3CC3)no2)C1 | -6% | 0.73
Cc1ncsc1C(=O)N1CCCN(C[C@H](O)c2ccccc2)CC1 | -10% | 0.92
O=C(NCc1ccccc1)N1CCC(F)(C(=O)N2CCOCC2)CC1 | -12% | 1.54
CCCCCc1nnc(NC(=O)Cc2cc(C)no2)s1 | -10% | 1.86
C[C@]1(CN2C(=O)c3ccccc3C2=O)Nc2ccccc2C(=O)N1c1ccccc1 | 1% | -0.22
Cc1ccc(-n2nc(C(=O)NCCN3CCOCC3)c(=O)n(Cc3ccccc3Cl)c2=O)cc1Cl | -13% | 1.65
O=C(NCCCN1CCCC1=O)[C@H]1CCCN(c2ncnc3c2nc2n3CCCCC2)C1 | -13% | 2.08
COC[C@H]1CCCN1C(=O)c1c(C)n[nH]c1C1CC1 | -16% | 2.12
COc1ccc(C2=NC3(CCCCC3)N(C(=O)c3ccccc3)C2=O)cc1 | -10% | 1
COc1cccc(-c2cc3c(c(OC)c2)OCCN(S(=O)(=O)c2ccccc2C(F)(F)F)C3)n1 | 6% | -0.8
N#Cc1ccc(C(=O)N[C@@H](Cc2ccccc2)C(N)=O)[nH]1 | -11% | 1.42
COC(=O)C1C2CCC(C2)C1NC(=O)Cc1csc(C(C)C)n1 (stereo not drawn) | -10% | 0.95
O=C(Nc1ccc(F)cc1)OC1CCCC(NC(=O)c2ccc(Br)o2)C1 (stereo not drawn) | -5% | 0.93
COCc1cc(CNCC(=O)NC2CCCCCCC2)n[nH]1 | -9% | 1.48
CN1C(=O)CCC(C(=O)NCC(=O)O)C1c1ccc(C(F)(F)F)cc1 (stereo not drawn) | -17% | 2.17

SMILES | % Inhibition | Z score
Cc1ccc(CNC(=O)Cn2cc(-c3noc(-c4ccncc4)n3)nc2C)cc1C | -2% | 0.24
CCn1nc(-c2csc(C)n2)nc1-c1ccc2[nH]c(C)nc2c1 | -6% | 0.76
CCc1nc(COC(=O)[C@@H]2CCCN2C(C)=O)cs1 | -2% | 0.26
O=C1NC2(CCN(S(=O)(=O)c3ccc(F)cc3F)CC2)Nc2ccccc21 | -1% | 0.12
COc1ccc2cc3n(c2c1)C[C@](C(=O)NC1CCCCCC1)(c1ccccc1)N(Cc1cccc(Br)c1)C3=O | 37% | -0.96
COc1ccc(-c2ccc(=O)n(CC(=O)N3CCN(Cc4ccccc4)CC3)n2)cc1OC | -10% | 1.76
Cc1nc(C(C)C)sc1C(=O)N(C)Cc1cc(C2CC2)[nH]n1 | -10% | 1.28
Cc1cnc([C@@H](C)CNC(=O)c2nc(-c3cnccn3)no2)s1 | -6% | 0.88
O[C@H]1C[C@@H](C(Nc2ncnc3[nH]ccc23)c2ccc3c(c2)CCO3)C1 (stereo partly drawn) | -5% | 0.76
CCCc1cc(C(=O)NC[C@H]2CCCN(S(C)(=O)=O)C2)ccn1 | -15% | 1.65
CO[C@H]1CCCN(C(=O)c2cccc(-c3ccc(-c4ncc(C)cn4)cc3)c2)C1 | -9% | 1.46
Cc1ccc(CN2CCC[C@H]2c2ncc(C)n2Cc2cccnc2)o1 | 10% | -1.29
Cc1ccc(CCC(=O)N2CC[C@H](N3CCN(C)CC3)[C@H](CCC(=O)O)C2)cc1 | -6% | 0.76
CCOc1ccc([C@@H](Nc2nc(C)cc(C)n2)c2cc(C)sc2NC(=O)c2ccccc2)cc1 | 44% | -5.92
O=C1C[C@@H](c2ccccc2)N(Cc2ccncc2)CCCN(C(=O)CC2CCCC2)CCN1 | 0% | -0.06
Cc1nnnn1CCC(=O)N1CCC[C@H](c2nc3ccccc3s2)C1 | -15% | 2.29
CCc1cc(NC(=O)N2CC(C)OC(c3ccsc3)C2)n(C)n1 (stereo not drawn) | -2% | 0.36
COc1cc(C(=O)N[C@H]2CCCO[C@@H]2c2ccc(Cl)cc2)ncn1 | 3% | -0.41
C#CCNC(=O)CCOc1ccccc1Cl | 8% | -1.37
Cc1cc(C(=O)N2CCc3c(ncn3C)C23CCOCC3)co1 | -6% | 1.05
Cc1nnnn1CCOc1ccccc1Br | -9% | 1.2
